Results as given in the antibiotic and cytotoxicity screens of Wong et al. (2023).
Some of the results follow.

How the values were obtained:
HSkMC = human skeletal muscle cells; assay: cytotoxicity call (relative viability < 0.9); conditions: 10 µM
HepG2 = assay: cytotoxicity call (relative viability < 0.9); conditions: 10 µM
S. aureus RN4220 = assay: growth inhibition call (relative growth <= 0.2); conditions: 50 µM

Structure (SMILES)	cytotoxicity call (HSkMC)	cytotoxicity call (HepG2)	growth inhibition call (S. aureus RN4220)
O=C(NC1CCCCC1)N(CCCl)[NH2+][O-]	inactive	inactive	inactive
COC(=O)[C@@H](NC(=O)c1cccc(NC=O)c1O)[C@@H](C)O	inactive	inactive	inactive
C[C@@H]1CN([C@H](C)CO)C(=O)c2cccc(NC(=O)Nc3ccccc3)c2O[C@@H]1CN(C)S(C)(=O)=O	inactive	inactive	inactive
c1ccc2n[nH]nc2c1	inactive	inactive	inactive
CC12CC3(C)CC(C)(C1)CC(C/N=C/c1ccc(O)cc1)(C2)C3	inactive	inactive	inactive
CCCN(C)C[C@@H]1OCCCC[C@@H](C)Oc2ccc(NC(=O)Nc3ccc(F)cc3)cc2C(=O)N([C@H](C)CO)C[C@@H]1C	inactive	inactive	inactive
Cc1cc(C(=O)Nc2cccc3c2O[C@@H](CN(C)S(=O)(=O)c2cccs2)[C@@H](C)CN([C@@H](C)CO)C3=O)n(C)n1	inactive	inactive	inactive
C[C@@H]1CN([C@H](C)CO)C(=O)c2cccc(NS(=O)(=O)c3ccc(F)cc3)c2O[C@@H]1CN(C)Cc1ccc(Oc2ccccc2)cc1	inactive	inactive	inactive
C[C@@H]1CCCCO[C@@H](CN(C)S(C)(=O)=O)[C@H](C)CN([C@@H](C)CO)C(=O)c2cc(NS(=O)(=O)c3cn(C)cn3)ccc2O1	inactive	inactive	inactive
CS(=O)(=O)Nc1ccc2c(c1)[C@@H]1C[C@H](CC(=O)NCC3CC3)O[C@H](CO)[C@@H]1O2	inactive	inactive	inactive
CO[C@@H]1CN(C)C(=O)c2ccc(NC(=O)NC3CCCCC3)cc2OC[C@@H](C)N(CCc2ccccc2)C[C@H]1C	inactive	inactive	inactive
C/C=C/c1ccc2c(c1)O[C@H](CN(C)S(=O)(=O)c1ccc(C)cc1)[C@H](C)CN([C@H](C)CO)S2(=O)=O	inactive	inactive	inactive
COc1ccc(S(=O)(=O)Nc2ccc3c(c2)C(=O)N([C@@H](C)CO)C[C@@H](C)[C@H](CN(C)CC2CCCCC2)OCCCC[C@@H](C)O3)cc1	inactive	inactive	inactive
Cn1nnc2c(N3CCCC3)ncnc21	inactive	inactive	inactive
O=C(C[C@@H]1CC[C@@H]2NC[C@H](O)COC[C@H]2O1)NCCN1CCCCC1	inactive	inactive	inactive
C[C@H](CO)N1C[C@H](C)[C@@H](CN(C)CC2CC2)Oc2ccc(NS(=O)(=O)c3ccccc3)cc2C1=O	inactive	inactive	inactive
C[C@@H]1CCCCO[C@@H](CN(C)C(=O)c2ccncc2)[C@H](C)CN([C@@H](C)CO)C(=O)c2cc(NS(C)(=O)=O)ccc2O1	inactive	inactive	inactive
COc1cc(OC)nc([C@@H](NC(=O)C2CCN(CCN3C(=O)c4ccccc4C3=O)CC2)c2ccc(F)cc2)n1	inactive	inactive	inactive
CC(C)NC(=O)N(C)C[C@H]1Oc2ccc(NC(=O)c3ccncc3)cc2CC(=O)N([C@H](C)CO)C[C@@H]1C	inactive	inactive	inactive

Structure (SMILES)	cytotoxicity call (HSkMC)	cytotoxicity call (HepG2)	growth inhibition call (S. aureus RN4220)
CCC[C@@H](O)C#Cc1cnc2c(c1)C(=O)N([C@H](C)CO)C[C@H](C)[C@H](CN(C)S(=O)(=O)c1ccc(C)cc1)O2	inactive	inactive	inactive
Cn1cncc1[C@@](N)(c1ccc(Cl)cc1)c1ccc2c(c1)c(-c1cccc(Cl)c1)cc(=O)n2C	inactive	active	active
Cc1c[nH]cnc1=O	inactive	inactive	inactive
C[C@H](CO)N1C[C@H](C)[C@H](CN(C)C(=O)N[C@H](C)c2ccccc2)OCc2ccccc2-c2ccccc2C1=O	inactive	inactive	inactive
COc1ccc(S(=O)(=O)N(C)C[C@@H]2Oc3ccc(N(C)C)cc3CC(=O)N([C@@H](C)CO)C[C@H]2C)cc1	inactive	inactive	inactive
C[C@H](NC(=O)N(C)C[C@H]1OCc2ccccc2-c2ccccc2C(=O)N([C@@H](C)CO)C[C@@H]1C)c1ccccc1	inactive	inactive	inactive
CCS(=O)(=O)NCC[C@H]1CC[C@H](NS(=O)(=O)c2ccccc2C)[C@H](CO)O1	inactive	inactive	inactive
Cc1cc(C(=O)Nc2cccc3c2O[C@@H](CN(C)S(=O)(=O)c2cccs2)[C@H](C)CN([C@@H](C)CO)C3=O)n(C)n1	inactive	inactive	inactive
COc1ccc(CN(C)C[C@H]2OCCCC[C@H](C)Oc3ccc(NC(=O)NC4CCCCC4)cc3C(=O)N([C@H](C)CO)C[C@@H]2C)cc1	inactive	inactive	inactive
C[C@@H]1CCCCO[C@H](CN(C)C(=O)Nc2ccc3c(c2)OCO3)[C@@H](C)CN([C@H](C)CO)C(=O)c2cc(NC(=O)c3ccncc3)ccc2O1	inactive	inactive	inactive
NC(=O)N[C@@H]1CC(=O)N(c2ccccc2)C1	inactive	inactive	inactive
CCc1[nH]c(=S)[nH]c(=O)c1C#N	inactive	inactive	inactive
C[C@H](CO)N1C[C@H](C)[C@H](CN(C)C(=O)Nc2cccc3ccccc23)OCc2cn(nn2)CCCC1=O	inactive	inactive	inactive
C[C@@H]1CN([C@H](C)CO)C(=O)c2cc(NC(=O)NC3CCCCC3)ccc2O[C@@H]1CN(C)C(=O)Nc1ccc(C(F)(F)F)cc1	inactive	inactive	inactive
C[C@@H]1CN([C@H](C)CO)C(=O)Cc2cc(NC(=O)Cn3cnnn3)ccc2O[C@H]1CN(C)Cc1ccc(C(=O)O)cc1	inactive	inactive	inactive
C[C@@H]1CN([C@@H](C)CO)C(=O)Cc2cc(NC(=O)Nc3ccc4c(c3)OCO4)ccc2O[C@@H]1CN(C)C(=O)Nc1ccc(C(F)(F)F)cc1	inactive	inactive	inactive
C[C@@H]1CCCCO[C@@H](CN(C)S(=O)(=O)c2cn(C)cn2)[C@@H](C)CN([C@H](C)CO)C(=O)c2cc(NS(=O)(=O)c3cccs3)ccc2O1	inactive	inactive	inactive
C[C@@H]1CN([C@H](C)CO)C(=O)c2c(c3ccccc3n2C)-c2ccccc2CO[C@@H]1CN(C)C(=O)Nc1ccc2c(c1)OCO2	inactive	inactive	inactive
O=C(C[C@H]1CC[C@@H]2[C@H](COC[C@H](O)CN2C(=O)c2cccnc2)O1)NCC1CC1	inactive	inactive	inactive

Structure (SMILES)	cytotoxicity call (HSkMC)	cytotoxicity call (HepG2)	growth inhibition call (S. aureus RN4220)
O=c1[nH]c2ccccc2c(O)c1[I+]c1ccccc1	inactive	inactive	inactive
C[C@@H]1CCCCO[C@@H](CN(C)C(=O)Nc2ccc3c(c2)OCO3)[C@@H](C)CN([C@@H](C)CO)C(=O)c2cc(NC(=O)CCC(F)(F)F)ccc2O1	inactive	inactive	inactive
CCC(=C/[C@H](C)C/C=C/C(C)=C/[C@@H](C)C(=O)[C@@H](C)[C@H](O)[C@@H](C)C/C(C)=C/C(=O)O)/C=C/[C@@H]1OC(=O)C=C[C@@H]1C	active	active	active
O=C1C[C@H](c2ccc(-c3ccc(C(F)(F)F)cc3)cc2)C2(C(=O)c3ccccc3C2=O)[C@H](c2ccccc2)C1	inactive	inactive	inactive
O=C(NCCN1CCOCC1)[C@@]1(CCS(=O)(=O)c2ccccc2)N=C(c2ccc(OCCCO)cc2)O[C@H]1c1ccccc1	inactive	inactive	inactive
C[C@H](CO)N1C[C@H](C)[C@H](CN(C)S(C)(=O)=O)Oc2ccc(NS(=O)(=O)c3ccc(F)cc3)cc2C1=O	inactive	inactive	inactive
Cc1cc(C(=O)Nc2cccc3c2O[C@H](CN(C)C(=O)NC2CCCCC2)[C@H](C)CN([C@H](C)CO)C3=O)n(C)n1	inactive	inactive	inactive
CCS(=O)(=O)N1C[C@]2(CN(Cc3cc(ccc3F)F)[C@@H](CO)c3c2c2ccc(cc2n3C)OC)C1	inactive	inactive	inactive
C[C@H](CO)N1C[C@H](C)[C@@H](CN(C)Cc2ccncc2)Oc2c(NC(=O)C3CCOCC3)cccc2C1=O	inactive	inactive	inactive
O=C(C[C@@H]1C=C[C@H](NC(=O)CN2CCOCC2)[C@@H](CO)O1)NCCc1ccccc1	inactive	inactive	inactive
C[C@@H]1CCCCO[C@@H](CN(C)C(=O)NC2CCCCC2)[C@@H](C)CN([C@@H](C)CO)C(=O)c2cc(NC(=O)Cc3ccccc3)ccc2O1	inactive	inactive	inactive
Cc1ccc(S(=O)(=O)Nc2cccc3c2O[C@H](CN(C)CC2CC2)[C@H](C)CN([C@@H](C)CO)C3=O)cc1	inactive	inactive	inactive
Cc1noc(C)c1NC(=O)Nc1ccc2c(c1)CC(=O)N([C@H](C)CO)C[C@H](C)[C@H](CN(C)S(C)(=O)=O)O2	inactive	inactive	inactive
O=C(C[C@@H]1CC=CC[C@@H](Cc2ccc(F)cc2)C(=O)OC[C@H](Cc2c[nH]c3ccccc23)NC1=O)NCCO	inactive	inactive	inactive
COc1ccc(S(=O)(=O)N(C)C[C@H]2OCCCC[C@H](C)Oc3ccc(NC(=O)Nc4cccc5ccccc45)cc3C(=O)N([C@@H](C)CO)C[C@H]2C)cc1	inactive	inactive	inactive
C[C@@H]1CN([C@H](C)CO)C(=O)Cc2cc(NS(=O)(=O)c3ccccc3)ccc2O[C@H]1CN(C)S(=O)(=O)c1ccccc1	inactive	inactive	inactive
CO[C@@H]1CN(C)C(=O)c2ccc(NC(C)=O)cc2OC[C@@H](C)N(S(=O)(=O)c2cn(C)cn2)C[C@@H]1C	inactive	inactive	inactive
CCC(=O)Nc1ccc2c(c1)C(=O)N(C)C[C@H](OC)[C@H](C)CN(C(=O)CN1CCOCC1)[C@H](C)CO2	inactive	inactive	inactive
C[C@@H]1CN([C@@H](C)CO)C(=O)c2cc(NC(=O)Cn3cnnn3)ccc2O[C@H]1CN(C)Cc1ccc(Cl)c(Cl)c1	inactive	inactive	inactive
